Measurements taken from the supplement of paper PMC10037445.
Several values for one entry are separate records, joined by “and”; a condition that tells them apart may be missing. Equal entries are not always repeated. Over roughly 2,900 compounds, “NF-kB SEAP reporter activity, fold change vs agonist alone” has its median near 0.99; the highest 2% begin near 2.6. This is one part of the list.

Legend:
RAW-Dual [1] = experiment: NF-kB SEAP reporter activity, fold change vs agonist alone; cytotoxicity flag (confluency mask): not cytotoxic; higher = enhanced NF-kB activity
Outline: (§1)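 After 50 nL of library stock was delivered by pin tool to RAW-Dual macrophages (50,000 cells/well, DMEM, 384-well plates), a PRR agonist was added 1 h later and the plates were kept at 37 °C, 5% CO2. Twenty hours later, IRF was read from supernatant by QuantiLuc luminescence and NF-κB by QuantiBlue absorbance at 620 nm. Reporter activity is stated as fold change over agonist-alone wells. Wells with IncuCyte confluency under 70% of agonist controls in both mask sets were counted as cytotoxic.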

RAW-Dual [2] = experiment: NF-kB SEAP reporter activity, fold change vs agonist alone; higher = enhanced NF-kB activity; conditions: library stock concentration (final ~1000-fold dilution): 10 mM
Outline: as §1

RAW-Dual [3] = experiment: NF-kB SEAP reporter activity, fold change vs agonist alone; cytotoxicity flag (confluency mask): cytotoxic (confluency <70% of control); higher = enhanced NF-kB activity
Outline: as §1

[4] = agonist: ODN 1826 (TLR9) 0.5 ug/mL
[5] = agonist: Pam2CSK4 (TLR2/6) 0.1 ug/mL
[6] = agonist: Pam3CSK4 (TLR2/1) 0.1 ug/mL
[7] = cytotoxicity flag (confluency mask): not cytotoxic, agonist: Imiquimod (TLR7) […]
[8] = cytotoxicity flag (confluency mask): not cytotoxic, agonist: MPLA (TLR4) […]

Cl.c1ccc(CN(CC2=NCCN2)c2ccccc2)cc1 (library stock concentration (final ~1000-fold dilution): 10 mM)
NF-kB SEAP reporter activity (RAW-Dual [1]; agonist: LPS (TLR4) 0.1 ug/mL): 1.02
NF-kB SEAP reporter activity (RAW-Dual [1]; [4]): 0.674
NF-kB SEAP reporter activity (RAW-Dual [1]; [5]): 0.951
NF-kB SEAP reporter activity (RAW-Dual [1]; [6]): 1.02

Cl.c1ccc(CN(CC2=NCCN2)c2ccccc2)cc1
NF-kB SEAP reporter activity (RAW-Dual [2]; [7]): 1.06
NF-kB SEAP reporter activity (RAW-Dual [2]; [8]): 1

CC(=O)c1ccc2c(c1)Nc1ccccc1S2
NF-kB SEAP reporter activity (RAW-Dual [2]; [8]): 0.996

CC(=O)c1ccc2c(c1)Nc1ccccc1S2 (library stock concentration (final ~1000-fold dilution): 10 mM)
NF-kB SEAP reporter activity (RAW-Dual [1]; agonist: LPS (TLR4) 0.1 ug/mL): 1.06
NF-kB SEAP reporter activity (RAW-Dual [1]; [4]): 1.04
NF-kB SEAP reporter activity (RAW-Dual [1]; [5]): 0.867
NF-kB SEAP reporter activity (RAW-Dual [1]; [6]): 0.872

CCN(CC)C(=O)/C(C#N)=C/c1cc(O)c(O)c([N+](=O)[O-])c1 (library stock concentration (final ~1000-fold dilution): 10 mM)
NF-kB SEAP reporter activity (RAW-Dual [1]; agonist: LPS (TLR4) 0.1 ug/mL): 1.28
NF-kB SEAP reporter activity (RAW-Dual [1]; [4]): 0.98
NF-kB SEAP reporter activity (RAW-Dual [1]; [5]): 1.07
NF-kB SEAP reporter activity (RAW-Dual [1]; [6]): 1.19

CCN(CC)C(=O)/C(C#N)=C/c1cc(O)c(O)c([N+](=O)[O-])c1
NF-kB SEAP reporter activity (RAW-Dual [2]; [7]): 1.05
NF-kB SEAP reporter activity (RAW-Dual [2]; [8]): 0.938

CC(=O)Oc1cc(C(C)C)c(OCCN(C)C)cc1C.Cl
NF-kB SEAP reporter activity (RAW-Dual [2]; [7]): 0.78
NF-kB SEAP reporter activity (RAW-Dual [2]; [8]): 1

CC(=O)Oc1cc(C(C)C)c(OCCN(C)C)cc1C.Cl (library stock concentration (final ~1000-fold dilution): 10 mM)
NF-kB SEAP reporter activity (RAW-Dual [1]; agonist: LPS (TLR4) 0.1 ug/mL): 0.923
NF-kB SEAP reporter activity (RAW-Dual [1]; [4]): 0.632
NF-kB SEAP reporter activity (RAW-Dual [1]; [5]): 0.952
NF-kB SEAP reporter activity (RAW-Dual [1]; [6]): 0.718

Cc1cc(F)c(Nc2ncnc3cc(OCc4ccccc4)ccc23)cc1O.Cl (library stock concentration (final ~1000-fold dilution): 10 mM)
NF-kB SEAP reporter activity (RAW-Dual [1]; agonist: LPS (TLR4) 0.1 ug/mL): 0.472
NF-kB SEAP reporter activity (RAW-Dual [1]; [4]): 0.598
NF-kB SEAP reporter activity (RAW-Dual [1]; [5]): 0.618
NF-kB SEAP reporter activity (RAW-Dual [1]; [6]): 0.593

Cc1cc(F)c(Nc2ncnc3cc(OCc4ccccc4)ccc23)cc1O.Cl
NF-kB SEAP reporter activity (RAW-Dual [2]; [7]): 1.07
NF-kB SEAP reporter activity (RAW-Dual [2]; [8]): 0.639

O=C(O)C(Cc1c[nH]c2ccccc12)N1C(=O)c2ccccc2C1=O (stereo not given) (library stock concentration (final ~1000-fold dilution): 10 mM)
NF-kB SEAP reporter activity (RAW-Dual [1]; agonist: LPS (TLR4) 0.1 ug/mL): 1.15
NF-kB SEAP reporter activity (RAW-Dual [1]; [4]): 1.1
NF-kB SEAP reporter activity (RAW-Dual [1]; [5]): 1.1
NF-kB SEAP reporter activity (RAW-Dual [1]; [6]): 1.09

O=C(O)C(Cc1c[nH]c2ccccc12)N1C(=O)c2ccccc2C1=O (stereo not given)
NF-kB SEAP reporter activity (RAW-Dual [2]; [7]): 1.14
NF-kB SEAP reporter activity (RAW-Dual [2]; [8]): 1.12

CCc1ccc(Cc2ccc3c(c2)[C@]2(OC3)O[C@H](CO)[C@@H](O)[C@H](O)[C@H]2O)cc1
NF-kB SEAP reporter activity (RAW-Dual [2]; [7]): 0.807
NF-kB SEAP reporter activity (RAW-Dual [2]; [8]): 1.17

CCc1ccc(Cc2ccc3c(c2)[C@]2(OC3)O[C@H](CO)[C@@H](O)[C@H](O)[C@H]2O)cc1 (library stock concentration (final ~1000-fold dilution): 10 mM)
NF-kB SEAP reporter activity (RAW-Dual [1]; agonist: LPS (TLR4) 0.1 ug/mL): 1.22
NF-kB SEAP reporter activity (RAW-Dual [1]; [4]): 0.965
NF-kB SEAP reporter activity (RAW-Dual [1]; [5]): 0.973
NF-kB SEAP reporter activity (RAW-Dual [1]; [6]): 1.13

CCOC(=O)C1=C(C)NC(C)=C(C(=O)OCC)C1c1ccccc1/C=C/C(=O)OC(C)(C)C (library stock concentration (final ~1000-fold dilution): 10 mM)
NF-kB SEAP reporter activity (RAW-Dual [1]; agonist: LPS (TLR4) 0.1 ug/mL): 1.43 and 0.652
NF-kB SEAP reporter activity (RAW-Dual [1]; [4]): 1.01 and 0.861
NF-kB SEAP reporter activity (RAW-Dual [1]; [5]): 0.569 and 0.361
NF-kB SEAP reporter activity (RAW-Dual [1]; [6]): 0.984 and 0.45

CCOC(=O)NC1CCC2C(C1)CC1C(=O)OC(C)C1C2/C=C/c1ccc(-c2cccc(F)c2)cn1 (stereo not given) (library stock concentration (final ~1000-fold dilution): 10 mM)
NF-kB SEAP reporter activity (RAW-Dual [1]; agonist: LPS (TLR4) 0.1 ug/mL): 0.824
NF-kB SEAP reporter activity (RAW-Dual [1]; [4]): 0.243
NF-kB SEAP reporter activity (RAW-Dual [1]; [5]): 0.212
NF-kB SEAP reporter activity (RAW-Dual [1]; [6]): 0.158

CCOC(=O)NC1CCC2C(C1)CC1C(=O)OC(C)C1C2/C=C/c1ccc(-c2cccc(F)c2)cn1 (stereo not given)
NF-kB SEAP reporter activity (RAW-Dual [2]; [7]): 0.145
NF-kB SEAP reporter activity (RAW-Dual [2]; [8]): 0.289

CC#CC(=O)Nc1ccc2ncnc(Nc3cccc(Br)c3)c2c1
NF-kB SEAP reporter activity (RAW-Dual [2]; [7]): 1.15
NF-kB SEAP reporter activity (RAW-Dual [2]; [8]): 0.437

CC#CC(=O)Nc1ccc2ncnc(Nc3cccc(Br)c3)c2c1 (library stock concentration (final ~1000-fold dilution): 10 mM)
NF-kB SEAP reporter activity (RAW-Dual [1]; agonist: LPS (TLR4) 0.1 ug/mL): 0.28
NF-kB SEAP reporter activity (RAW-Dual [1]; [4]): 0.399
NF-kB SEAP reporter activity (RAW-Dual [1]; [5]): 0.341
NF-kB SEAP reporter activity (RAW-Dual [1]; [6]): 0.369

CNC1CCC(c2ccc(Cl)c(Cl)c2)c2ccccc21.Cl (stereo not given) (library stock concentration (final ~1000-fold dilution): 10 mM)
NF-kB SEAP reporter activity (RAW-Dual [3]; agonist: LPS (TLR4) 0.1 ug/mL): 0.879
NF-kB SEAP reporter activity (RAW-Dual [3]; [4]): 0.405
NF-kB SEAP reporter activity (RAW-Dual [3]; [5]): 0.42
NF-kB SEAP reporter activity (RAW-Dual [3]; [6]): 0.484

CNC1CCC(c2ccc(Cl)c(Cl)c2)c2ccccc21.Cl (stereo not given)
NF-kB SEAP reporter activity (RAW-Dual [2]; cytotoxicity flag (confluency mask): cytotoxic (confluency <70% of control), agonist: Imiquimod (TLR7) […]): 1.64
NF-kB SEAP reporter activity (RAW-Dual [2]; cytotoxicity flag (confluency mask): cytotoxic (confluency <70% of control), agonist: MPLA (TLR4) […]): 1.56

CCC(C(C)O)n1ncn(-c2ccc(N3CCN(c4ccc(OCC5COC(Cn6cncn6)(c6ccc(F)cc6F)C5)cc4)CC3)cc2)c1=O (stereo not given)
NF-kB SEAP reporter activity (RAW-Dual [2]; [7]): 1.9
NF-kB SEAP reporter activity (RAW-Dual [2]; [8]): 1.87

CCC(C(C)O)n1ncn(-c2ccc(N3CCN(c4ccc(OCC5COC(Cn6cncn6)(c6ccc(F)cc6F)C5)cc4)CC3)cc2)c1=O (stereo not given) (library stock concentration (final ~1000-fold dilution): 10 mM)
NF-kB SEAP reporter activity (RAW-Dual [1]; agonist: LPS (TLR4) 0.1 ug/mL): 1.39
NF-kB SEAP reporter activity (RAW-Dual [1]; [4]): 2.48
NF-kB SEAP reporter activity (RAW-Dual [1]; [5]): 1.07
NF-kB SEAP reporter activity (RAW-Dual [1]; [6]): 0.999

CCCCc1ncc(/C=C(\Cc2cccs2)C(=O)O)n1Cc1ccc(C(=O)O)cc1.CS(=O)(=O)O
NF-kB SEAP reporter activity (RAW-Dual [2]; [7]): 0.937
NF-kB SEAP reporter activity (RAW-Dual [2]; [8]): 0.953

CCCCc1ncc(/C=C(\Cc2cccs2)C(=O)O)n1Cc1ccc(C(=O)O)cc1.CS(=O)(=O)O (library stock concentration (final ~1000-fold dilution): 10 mM)
NF-kB SEAP reporter activity (RAW-Dual [1]; agonist: LPS (TLR4) 0.1 ug/mL): 0.937
NF-kB SEAP reporter activity (RAW-Dual [1]; [4]): 0.959
NF-kB SEAP reporter activity (RAW-Dual [1]; [5]): 0.969
NF-kB SEAP reporter activity (RAW-Dual [1]; [6]): 1.04
